Assay results reported in PubChem BioAssay AID2107 (National Center for Advancing Translational Sciences (NCATS), 2009).
Several values for one entry are separate records, joined by “and”; a condition that tells them apart may be missing. Equal values may be shown once. In all, about 240,000 compounds went through this assay and about 20 (0.008%) were called active. The shares of active, inactive and inconclusive entries below differ from those in the screen. Calls come from the whole dose curve; as a rule, active = well fitted inhibition curve with a large enough effect; inconclusive = small, poorly fitted or top-dose-only effect, or effect the other way; inactive = flat fitted curve, though single readings scatter. Potencies of inconclusive entries are doubtful fits and often do not repeat.

biological target: Alpha-galactosidase A (Homo sapiens) (UniProt P06280); test: qHTS Assay for Inhibitors and Activators of Human alpha-Galactosidase From Spleen Homogenate; settings: 4MU-alpha-Gal fluorescence, 40 min; series mostly up to 80 µM
UniProt P06280, sequence (P06280 whole entry, looked up): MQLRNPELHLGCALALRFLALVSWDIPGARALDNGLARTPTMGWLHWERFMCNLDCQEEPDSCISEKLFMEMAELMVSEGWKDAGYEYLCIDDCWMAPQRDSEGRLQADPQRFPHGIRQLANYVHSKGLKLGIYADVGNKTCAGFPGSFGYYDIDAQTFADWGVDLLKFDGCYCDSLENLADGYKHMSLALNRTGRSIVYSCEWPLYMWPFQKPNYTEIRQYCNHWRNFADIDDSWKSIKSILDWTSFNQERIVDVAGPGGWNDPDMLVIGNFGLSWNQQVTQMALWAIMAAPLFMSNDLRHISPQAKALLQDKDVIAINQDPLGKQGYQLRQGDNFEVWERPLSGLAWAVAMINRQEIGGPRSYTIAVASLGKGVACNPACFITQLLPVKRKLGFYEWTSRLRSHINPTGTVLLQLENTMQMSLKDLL
Procedure, shortened: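 qHTS titration in buffer at pH 5.0. Alpha-galactosidase activity in spleen homogenate was measured via 4-methylumbelliferone release from 1 mM fluorogenic substrate after 40 min at 37C and a pH 10 stop. AC50 came from Hill fits of control-normalized data.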
Potency is the fitted concentration of half-maximal effect; tags give direction and shape of the fitted curve.

Question: How did the Potency turn out when `CC(C)(C)NC(=O)CN(C(=O)C1(C)CC(=O)N=C2C=CC=CN21)C1CCCC1` (stereo not drawn) was run?
Answer: inconclusive: 44.7 µM [activator, single point]

Question: With `Nc1ccc(-c2nc3ccc(-c4nc5ccc(N)cc5[nH]4)cc3[nH]2)cc1` as the compound, how does the Potency read?
Answer: inconclusive: 11.2 µM [activator, full curve, poor fit]

Question: For `Cc1c(C)c2cc(Cl)c(O)c(CN(C)C)c2oc1=O`, which Potency is on record?
Answer: inconclusive: 31.6 µM [activator, partial curve]

Question: With `Cc1cc(C)n(S(=O)(=O)/C=C/c2ccccc2)n1` as the compound, how does the Potency read?
Answer: inconclusive: 11.2 µM [activator, single point]

Question: `O=c1ccc2ccc(O)c(O)c2o1` was tested. Which Potency did it give?
Answer: inactive

Question: `O=C(NC1CCC(O)CC1)c1cc(-c2ccco2)nc2ccccc12` (stereo not drawn) was tested. Which Potency did it give?
Answer: inconclusive: 28.2 µM [activator, single point]

Question: With `CC(=O)N[C@H]1CSSC[C@@H](C(=O)N2CCC[C@H]2C(=O)N2CCC[C@H]2C(=O)N[C@@H](CCCCN)C(=O)N[C@@H](CC(=O)O)C(N)=O)NC(=O)CNC(=O)[C@H](Cc2c[nH]c3ccccc23)NC(=O)[C@H](CCCNC(=N)N)NC(=O)[C@@H](Cc2ccc(Cl)c(Cl)c2)NC(=O)[C@H](Cc2cnc[nH]2)NC(=O)[C@H](CCC(=O)O)NC1=O` as the compound, how does the Potency read?
Answer: inactive

Question: Which Potency does the source give for `COc1ccccc1-c1nnc2n1N=C(c1c(OC)cccc1OC)CS2` here?
Answer: inactive

Question: For `c1ccc(N2CC3CCc4ccccc4C3=N2)cc1` (stereo not drawn), which Potency is on record?
Answer: inconclusive: 35.5 µM [activator, partial curve]

Question: How did the Potency turn out when `COc1cc(/C=N/Nc2ccccc2C(F)(F)F)ccc1O` was run?
Answer: inactive

Question: How did the Potency turn out when `CCC(C)NS(=O)(=O)c1ccc(S(=O)(=O)N(CC(=O)Nc2ccccc2)Cc2ccco2)cc1` (stereo not drawn) was run?
Answer: inactive

Question: With `Cc1ccc(N2CC(C(=O)N3CCN(C(=O)c4ccco4)CC3)CC2=O)cc1` (stereo not drawn) as the compound, how does the Potency read?
Answer: inconclusive: 31.6 µM [inhibitor, partial curve]

Question: `Cc1c(C(=O)O)oc2ccc(S(=O)(=O)N3CC(C)CC(C)C3)cc12` (stereo not drawn) was tested. Which Potency did it give?
Answer: inactive

Question: Which Potency does the source give for `COC(=O)COc1ccc(S(=O)(=O)Nc2ccc3c(c2)OCO3)cc1Cl` here?
Answer: inconclusive: 56.2 µM [activator, single point]

Question: `CCOCC(=O)Nc1cccc(Br)c1` was tested. Which Potency did it give?
Answer: inactive

Question: With `Cc1cccc(S(=O)(=O)c2c(N)n(-c3ccccc3)c3nc4ccccc4nc23)c1` as the compound, how does the Potency read?
Answer: inconclusive: 17.8 µM [activator, partial curve]

Question: How did the Potency turn out when `CCCCCCCCCCCCOS(=O)(=O)O` was run?
Answer: inconclusive: 39.8 µM [inhibitor, single point]

Question: With `O=c1cnc2cnc(Oc3cccc(Cl)c3)nc2n1C[C@H]1CCCO1` as the compound, how does the Potency read?
Answer: inconclusive: 31.6 µM [inhibitor, single point]

Question: `CCCCNC(=O)c1cc2c(=O)n3cccc(C)c3nc2n(CCN2CCOCC2)c1=N` was tested. Which Potency did it give?
Answer: inconclusive: 15.8 µM [activator, partial curve]

Question: Which Potency does the source give for `COCCNc1nc(C)nc2c1nc(-c1ccccc1)n2C1CCN(Cc2ccccc2)C1` (stereo not drawn) here?
Answer: inactive

Question: For `NNC(=O)c1ccc2[nH]c3c(c2c1)CCCC3`, which Potency is on record?
Answer: inactive

Question: How did the Potency turn out when `CC1=CC(C)[C@H](/C=N/n2c(=O)[nH]c3c([nH]c4ccc(C)cc43)c2=O)C(C)C1` (stereo partly drawn) was run?
Answer: inconclusive: 28.2 µM [activator, partial curve]

Question: With `CCN(CC)Cc1c(O)ccc2c(=O)c(Oc3ccccc3OC)c(C)oc12` as the compound, how does the Potency read?
Answer: inconclusive: 15.8 µM [activator, partial curve]

Question: Which Potency does the source give for `CCOC(=O)C(NC(=O)OC(C)C)(Nc1nccs1)C(F)(F)F` (stereo not drawn) here?
Answer: inconclusive: 28.2 µM [activator, partial curve, poor fit]

Question: With `CN(C)CCNc1nc2c(c(=O)[nH]c(=O)n2C)n1CC(O)COc1ccc(Cl)cc1` (stereo not drawn) as the compound, how does the Potency read?
Answer: inactive

Question: `O=C(Oc1ccc2ccc(=O)oc2c1)C1CCCCC1` was tested. Which Potency did it give?
Answer: inconclusive: 35.5 µM [activator, partial curve]

Question: Which Potency does the source give for `COc1ccc2ncc(S(=O)(=O)c3ccccc3)c(N3CCC4(CC3)OCCO4)c2c1` here?
Answer: inactive

Question: With `CCCC(=O)Nc1c2c(nc3ccccc13)N(c1ccccc1)CC2` as the compound, how does the Potency read?
Answer: inconclusive: 31.6 µM [activator, partial curve]

Question: For `CCC(C)NC(=O)CCNS(=O)(=O)c1ccc(Br)cc1` (stereo not drawn), which Potency is on record?
Answer: inactive

Question: `COc1ccc(C2c3sc(=O)[nH]c3SC3C4CCC(C4)C23)cc1` (stereo not drawn) was tested. Which Potency did it give?
Answer: inactive

Question: How did the Potency turn out when `COc1cc(C(CCN2CCCCC2)c2c(OC)cc(OC)c3c2OC(=O)CC3c2ccc(N(C)C)cc2)cc(OC)c1OC` (stereo not drawn) was run?
Answer: inconclusive: 12.6 µM [activator, single point]

Question: How did the Potency turn out when `CCCC1C(C#N)=C(N)Oc2cc(C)n(C)c(=O)c21` (stereo not drawn) was run?
Answer: inconclusive: 44.7 µM [activator, single point]

Question: For `Cc1c(Nc2c3ccccc3nc3ccccc23)c(=O)n(-c2ccccc2)n1C`, which Potency is on record?
Answer: inconclusive: 8.91 µM [activator, full curve]

Question: How did the Potency turn out when `c1ccc2nc3[nH]cnc3nc2c1` was run?
Answer: inconclusive: 56.2 µM [activator, single point]

Question: How did the Potency turn out when `CN(C(=O)CSc1nc2c(c(=O)[nH]1)CCCC2)C1CCCCC1` was run?
Answer: inconclusive: 39.8 µM [inhibitor, partial curve]

Question: Which Potency does the source give for `C=CCc1c(O)c(CC)cc2c(C)cc(=O)oc12` here?
Answer: inconclusive: 31.6 µM [activator, partial curve]

Question: With `Cc1ccccc1-c1nc(NCc2cccnc2)c2ccccc2n1` as the compound, how does the Potency read?
Answer: inconclusive: 50.1 µM [inhibitor, single point]

Question: For `CCOc1ccc(Nc2nc(NCC3CCCO3)c3ccccc3n2)cc1` (stereo not drawn), which Potency is on record?
Answer: inconclusive: 35.5 µM [inhibitor, single point]

Question: How did the Potency turn out when `COc1ccc(/C=C/C(=O)c2ccc(C)c([N+](=O)[O-])c2)cc1O` was run?
Answer: inactive

Question: `N#CCCn1c(=O)c(-c2cccs2)nc2cnc(Oc3cccc(Cl)c3)nc21` was tested. Which Potency did it give?
Answer: inconclusive: 10 µM [activator, single point]

Question: Which Potency does the source give for `CCOC(=O)c1c(C)c(C(=O)NCc2ccco2)c(C)n1CC` here?
Answer: inconclusive: 39.8 µM [inhibitor, single point]

Question: For `COc1cc2ncc(-c3ccccc3)nc2cc1OC`, which Potency is on record?
Answer: inconclusive: 44.7 µM [activator, partial curve] and inconclusive: 39.8 µM [activator, partial curve]

Question: Which Potency does the source give for `Nc1ccc(-c2cc(-c3cccc(N)c3)nc(-c3ccccc3)n2)cc1` here?
Answer: inconclusive: 50.1 µM [activator, single point]

Question: How did the Potency turn out when `O=C(Nc1nnc(-c2ccco2)s1)c1ccccc1` was run?
Answer: inconclusive: 44.7 µM [activator, single point]

Question: For `O=S(=O)(Nc1ccc(-c2nc3cccnc3s2)cc1)c1ccccc1F`, which Potency is on record?
Answer: inconclusive: 31.6 µM [activator, partial curve]

Question: For `COc1ccc2c(c1)c1ncn(CCN3CCNCC3)c(=O)c1n2C`, which Potency is on record?
Answer: inconclusive: 31.6 µM [activator, partial curve]

Question: `CC(=O)Nc1sc2c(c1C#N)CCC(C)C2` (stereo not drawn) was tested. Which Potency did it give?
Answer: inactive

Question: Which Potency does the source give for `OC(C#CCN1CCOCC1)c1cccs1` (stereo not drawn) here?
Answer: inconclusive: 22.4 µM [inhibitor, single point]

Question: `COC(=O)c1cc(-c2ccc(C)o2)nc2ccccc12` was tested. Which Potency did it give?
Answer: inconclusive: 28.2 µM [activator, partial curve]

Question: Which Potency does the source give for `CNC(=S)N/N=C/c1ccc(N(C)C)cc1` here?
Answer: inconclusive: 31.6 µM [activator, single point]

Question: Which Potency does the source give for `O=C(NC(=S)Nc1ccc(-c2nc3ncccc3o2)cc1)c1ccccc1F` here?
Answer: inconclusive: 39.8 µM [activator, single point]

Question: For `Cc1cc(-n2c(=O)c(C#N)cc3c(=O)n4ccccc4nc32)no1`, which Potency is on record?
Answer: inconclusive: 35.5 µM [activator, partial curve]

Question: With `Cc1ccc2[nH]c3c(c2c1)CN(C(=O)CN1CCN(c2ccccn2)CC1)CC3` as the compound, how does the Potency read?
Answer: inconclusive: 44.7 µM [inhibitor, single point]

Question: How did the Potency turn out when `CC(C)CCn1c(N)c(S(=O)(=O)c2cccs2)c2nc3ccccc3nc21` was run?
Answer: inconclusive: 28.2 µM [activator, partial curve]

Question: With `O=C1c2ccsc2SCCN1Cc1ccc(Cl)cc1Cl` as the compound, how does the Potency read?
Answer: inactive

Question: Which Potency does the source give for `CC(NC(=O)c1ccc(F)cc1)C(c1cccs1)N1CCN(C)CC1` (stereo not drawn) here?
Answer: inactive

Question: For `CNc1nc(-c2ccccc2)cc(C)c1S(C)(=O)=O`, which Potency is on record?
Answer: inconclusive: 31.6 µM [activator, partial curve]

Question: How did the Potency turn out when `CC(=O)Nc1ccc(-c2cn3cccnc3n2)cc1` was run?
Answer: inconclusive: 35.5 µM [activator, partial curve]

Question: For `CCN=C1SC(CC(N)=O)C(=O)N1CC` (stereo not drawn), which Potency is on record?
Answer: inconclusive: 50.1 µM [activator, single point]

Question: `COCCNc1c2c(c(C#N)c3nc4ccccc4n13)CCCC2` was tested. Which Potency did it give?
Answer: inconclusive: 50.1 µM [inhibitor, single point]

Question: With `COc1ccc(N2CCc3c(C)nc4c(OC)cccc4c32)cc1` as the compound, how does the Potency read?
Answer: inactive

Question: `Cc1cccn2c(N)c(-c3ccccc3)nc12` was tested. Which Potency did it give?
Answer: inconclusive: 25.1 µM [activator, single point]

Question: Which Potency does the source give for `Cc1nn(-c2ccccc2)c(C)c1/C=C/C(=O)OCC(=O)Nc1ncc(C(F)(F)F)cc1Cl` here?
Answer: inactive

Question: For `CCCN(CCC)C(=O)Cn1ccc(=N)c2ccccc21`, which Potency is on record?
Answer: inconclusive: 7.08 µM [activator, single point]

Question: Which Potency does the source give for `CN1CCN(c2ncc3nc(-c4ccc(Cl)cc4)c(=O)n(C)c3n2)CC1` here?
Answer: inconclusive: 39.8 µM [activator, partial curve]

Question: Which Potency does the source give for `O=C(Oc1cc2oc(=O)c3c(c2cc1Cl)CCCC3)c1cccs1` here?
Answer: inconclusive: 39.8 µM [activator, partial curve]

Question: With `CCN1CCN(Cc2c(O)c(Cl)cc3c(C)cc(=O)oc23)CC1` as the compound, how does the Potency read?
Answer: inconclusive: 31.6 µM [activator, partial curve]

Question: `CCc1cc(=O)oc2c(C)c(O)c(CN(C)C)cc12` was tested. Which Potency did it give?
Answer: inconclusive: 35.5 µM [activator, partial curve]
